{
  "source": "the supplement of paper PMC8728848",
  "binders": {"B1": {"name": "Banana lectin (Musa acuminata) (protein)", "chain": "MNGAIKVGAWGGNGGSAFDMGPAYRIISVKIFSGDVVDGVDVTFTYYGKTETRHYGGSGGTPHEIVLQEGEYLVGMAGEVANYHGAVVLGKLGFSTNKKAYGPFGNTGGTPFSLPIAAGKISGFFGRGGKFLDAIGVYLEPLEHHHHHH"}},
  "assay_in_all_cases": "glycan array binding signal (z-score within array); higher = stronger binding",
  "details_in_all_cases": "glycan notation: IUPAC condensed, linker removed",
  "key": {"[1]": {"biological_target": "Gal(b1-4)GalNAc(b1-3)[Fuc(a1-2)]Gal(b1-4)GlcNAc", "summary_of_the_method": "(§1)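 The Consortium for Functional Glycomics database supplied 3228 glycan arrays, of which those lacking an available protein sequence were dropped. The binding signal, a within-array Z-score, was averaged across arrays of the same protein sequence and across linkers. Negative scores can be read as non-binding.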"}, "Gal(b1-4)Glc": {"biological_target": "Gal(b1-4)Glc", "summary_of_the_method": "as §1"}, "Gal(b1-4)Glc6S": {"biological_target": "Gal(b1-4)Glc6S", "summary_of_the_method": "as §1"}, "Gal(b1-4)GlcNAc": {"biological_target": "Gal(b1-4)GlcNAc", "summary_of_the_method": "as §1"}, "[2]": {"biological_target": "Gal(b1-4)GlcNAc(a1-6)Gal(b1-4)GlcNAc", "summary_of_the_method": "as §1"}, "Gal(b1-4)GlcNAc(b1-2)Man": {"biological_target": "Gal(b1-4)GlcNAc(b1-2)Man", "summary_of_the_method": "as §1"}, "[3]": {"biological_target": "Gal(b1-4)GlcNAc(b1-2)Man(a1-3)Man(b1-4)GlcNAc(b1-4)GlcNAc", "summary_of_the_method": "as §1"}, "[4]": {"biological_target": "Gal(b1-4)GlcNAc(b1-2)Man(a1-3)[Gal(b1-4)GlcNAc(b1-2)Man(a1-6)]Man(b1-4)GlcNAc(b1-4)GlcNAc", "summary_of_the_method": "as §1"}, "[5]": {"biological_target": "Gal(b1-4)GlcNAc(b1-2)Man(a1-3)[Gal(b1-4)GlcNAc(b1-2)Man(a1-6)]Man(b1-4)GlcNAc(b1-4)[Fuc(a1-6)]GlcNAc", "summary_of_the_method": "as §1"}, "[6]": {"biological_target": "Gal(b1-4)GlcNAc(b1-2)Man(a1-3)[Gal(b1-4)GlcNAc(b1-2)Man(a1-6)][Gal(b1-4)GlcNAc(b1-4)]Man(b1-4)GlcNAc(b1-4)[Fuc(a1-6)]GlcNAc", "summary_of_the_method": "as §1"}, "[7]": {"biological_target": "Gal(b1-4)GlcNAc(b1-2)Man(a1-3)[Gal(b1-4)GlcNAc(b1-2)Man(a1-6)][GlcNAc(b1-4)]Man(b1-4)GlcNAc(b1-4)[Fuc(a1-6)]GlcNAc", "summary_of_the_method": "as §1"}, "[8]": {"biological_target": "Gal(b1-4)GlcNAc(b1-2)Man(a1-3)[GlcNAc(b1-2)Man(a1-6)]Man(b1-4)GlcNAc(b1-4)GlcNAc", "summary_of_the_method": "as §1"}, "[9]": {"biological_target": "Gal(b1-4)GlcNAc(b1-2)Man(a1-3)[GlcNAc(b1-4)][Gal(b1-4)GlcNAc(b1-2)Man(a1-6)]Man(b1-4)GlcNAc(b1-4)GlcNAc", "summary_of_the_method": "as §1"}, "[10]": {"biological_target": "Gal(b1-4)GlcNAc(b1-2)Man(a1-3)[Man(a1-6)]Man(b1-4)GlcNAc(b1-4)GlcNAc", "summary_of_the_method": "as §1"}, "[11]": {"biological_target": "Gal(b1-4)GlcNAc(b1-2)Man(a1-6)Man(b1-4)GlcNAc(b1-4)GlcNAc", "summary_of_the_method": "as §1"}, "[12]": {"biological_target": "Gal(b1-4)GlcNAc(b1-2)Man(a1-6)[GlcNAc(b1-2)Man(a1-3)]Man(b1-4)GlcNAc(b1-4)GlcNAc", "summary_of_the_method": "as §1"}, "[13]": {"biological_target": "Gal(b1-4)GlcNAc(b1-2)Man(a1-6)[GlcNAc(b1-2)Man(a1-3)]Man(b1-4)GlcNAc(b1-4)[Fuc(a1-6)]GlcNAc", "summary_of_the_method": "as §1"}, "[14]": {"biological_target": "Gal(b1-4)GlcNAc(b1-2)Man(a1-6)[Man(a1-3)]Man(b1-4)GlcNAc(b1-4)GlcNAc", "summary_of_the_method": "as §1"}, "[15]": {"biological_target": "Gal(b1-4)GlcNAc(b1-2)Man(a1-6)[Man(a1-3)]Man(b1-4)GlcNAc(b1-4)[Fuc(a1-6)]GlcNAc", "summary_of_the_method": "as §1"}, "[16]": {"biological_target": "Gal(b1-4)GlcNAc(b1-2)[Gal(b1-4)GlcNAc(b1-4)]Man(a1-3)[Fuc(a1-3)[Gal(b1-4)]GlcNAc(b1-2)Man(a1-6)]Man(b1-4)GlcNAc(b1-4)GlcNAc", "summary_of_the_method": "as §1"}, "[17]": {"biological_target": "Gal(b1-4)GlcNAc(b1-2)[Gal(b1-4)GlcNAc(b1-4)]Man(a1-3)[Gal(b1-4)GlcNAc(b1-2)Man(a1-6)]Man(b1-4)GlcNAc(b1-4)GlcNAc", "summary_of_the_method": "as §1"}, "[18]": {"biological_target": "Gal(b1-4)GlcNAc(b1-2)[Gal(b1-4)GlcNAc(b1-4)]Man(a1-3)[Gal(b1-4)GlcNAc(b1-2)[Gal(b1-4)GlcNAc(b1-6)]Man(a1-6)]Man(b1-4)GlcNAc(b1-4)GlcNAc", "summary_of_the_method": "as §1"}},
  "note": "This is one part of the list.",
  "data": [
    {"binder": "B1", "values": [
      {"measurement": "glycan array binding signal (z-score)", "setting": "[1]", "value": -0.184},
      {"measurement": "glycan array binding signal (z-score)", "setting": "Gal(b1-4)Glc", "value": -0.194},
      {"measurement": "glycan array binding signal (z-score)", "setting": "Gal(b1-4)Glc6S", "value": -0.181},
      {"measurement": "glycan array binding signal (z-score)", "setting": "Gal(b1-4)GlcNAc", "value": -0.22},
      {"measurement": "glycan array binding signal (z-score)", "setting": "[2]", "value": -0.234},
      {"measurement": "glycan array binding signal (z-score)", "setting": "Gal(b1-4)GlcNAc(b1-2)Man", "value": -0.193},
      {"measurement": "glycan array binding signal (z-score)", "setting": "[3]", "value": -0.113},
      {"measurement": "glycan array binding signal (z-score)", "setting": "[4]", "value": -0.459},
      {"measurement": "glycan array binding signal (z-score)", "setting": "[5]", "value": -0.604},
      {"measurement": "glycan array binding signal (z-score)", "setting": "[6]", "value": -0.226},
      {"measurement": "glycan array binding signal (z-score)", "setting": "[7]", "value": -0.603},
      {"measurement": "glycan array binding signal (z-score)", "setting": "[8]", "value": -0.068},
      {"measurement": "glycan array binding signal (z-score)", "setting": "[9]", "value": -0.204},
      {"measurement": "glycan array binding signal (z-score)", "setting": "[10]", "value": 0.185},
      {"measurement": "glycan array binding signal (z-score)", "setting": "[11]", "value": -0.211},
      {"measurement": "glycan array binding signal (z-score)", "setting": "[12]", "value": 0.522},
      {"measurement": "glycan array binding signal (z-score)", "setting": "[13]", "value": -0.526},
      {"measurement": "glycan array binding signal (z-score)", "setting": "[14]", "value": 1.42},
      {"measurement": "glycan array binding signal (z-score)", "setting": "[15]", "value": -0.732},
      {"measurement": "glycan array binding signal (z-score)", "setting": "[16]", "value": -0.962},
      {"measurement": "glycan array binding signal (z-score)", "setting": "[17]", "value": -0.175},
      {"measurement": "glycan array binding signal (z-score)", "setting": "[18]", "value": -0.555}
    ]}
  ]
}
